About 18,000 (5.8%) of roughly 310,000 compounds were called active. The shares of active, inactive and inconclusive entries below differ from those in the screen. Calls follow the shape of the dose curve; as a rule, active = well fitted inhibition curve with a large enough effect; inconclusive = small, poorly fitted or top-dose-only effect, or another doubt; inactive = no such curve, though single readings can be large or run the other way. Potencies of inconclusive entries are left out as doubtful fits.
Experiment: Primary qHTS for delayed death inhibitors of the malarial parasite plastid, 48 hour incubation
Details: P. falciparum luciferase growth in erythrocytes; series mostly up to 28.7 µM
Procedure, shortened: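 Compounds are pin-transferred into medium, infected erythrocytes (2% hematocrit, 0.1% parasitemia final) are added, and plates sit one parasite generation at 37 C in 5% CO2. Detection reagent is then added and luminescence measured.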
For CSc1nc(Sc2ccccc2Cl)c2ccccc2n1, the Potency was inconclusive [inhibitor, single point].
For O=C1C=C(c2ccc(Cl)c(C(F)(F)F)c2)C[C@@H](c2ccc(F)cc2)C1, the Potency was inconclusive [inhibitor, single point].
In the case of CCCC(c1nnnn1CC1CCCO1)N1CCN(c2cc(Cl)ccc2C)CC1 (stereo not given), the Potency is reported as active: 13.1 µM.
With Cc1cccc(NP(=O)(Oc2ccccc2F)Oc2ccccc2F)c1 the Potency was inconclusive [inhibitor, single point].
With Cc1ccc(C)c(N2C(=O)C3C4C=CC(CC4)C3C2=O)c1 (stereo not given) the Potency was inconclusive [inhibitor, full curve].
In the case of CCN1CCN(CCCNC(=O)c2ccc(/C=C3/Sc4ccccc4N(Cc4ccccc4F)C3=O)cc2)CC1, the Potency is reported as inconclusive [inhibitor, single point].
With C1=C(CCNc2ncnc3nc[nH]c23)CCCC1 the Potency was inconclusive [inhibitor, partial curve].
With Cc1cccc(S(=O)(=O)Nc2ccc(-n3c(C)nc4ccccc4c3=O)cc2)c1 the Potency was inconclusive [inhibitor, partial curve, poor fit].
For CCOc1cc(Br)cc(/C=N/NC(=O)c2cccnc2)c1O, the Potency was inconclusive [inhibitor, single point].
With CC1=CC(C)(C)N(C(=O)CSc2nnc(C)s2)c2ccc(C)cc21 the Potency was “inactive”.
With CCOC(=O)CNC(=O)c1sc2ncnc(N3CCc4ccccc4C3)c2c1C the Potency was inconclusive [inhibitor, single point].
With COc1ccc(C(C(=O)NC2CCCC2)N(CCO)C(=O)Cn2nnc(-c3ccc(C)o3)n2)cc1OC (stereo not given) the Potency was “inactive”.
For CCOc1cc(C2C(C(=O)N3CCCCC3)=C(C)NC3=C2C(=O)CC(C)(C)C3)ccc1O (stereo not given), the Potency was inconclusive [inhibitor, partial curve, poor fit].
For CCC(Cc1ccccc1)NC(=O)C1CCN(S(=O)(=O)c2ccc3c(c2)CC(C)N3C(C)=O)CC1 (stereo not given), the Potency was inconclusive [inhibitor, partial curve, poor fit].
With CC(C)N1CCC(N2CCN(C/C=C/c3ccccc3)CC2CCO)CC1 (stereo not given) the Potency was inconclusive [inhibitor, single point].
With O=Cc1cnc(N2CCOCC2)nc1 the Potency was “inactive”.
With Clc1cccc(N/N=C(\Cc2nc3ccccc3[nH]2)c2ccccc2)c1 the Potency was active: 11.7 µM.
With COc1ccc(C(=O)Nc2cccc(S(=O)(=O)NC3=NCCCCC3)c2)cc1 the Potency was inconclusive [inhibitor, single point].
With CSc1ccccc1C(=O)C1CCCN(S(=O)(=O)c2c(C)noc2C)C1 (stereo not given) the Potency was inconclusive [inhibitor, partial curve, poor fit].
In the case of COc1ccc(C(=O)Nc2c3c(nn2-c2ccc([N+](=O)[O-])cc2)CS(=O)(=O)C3)cc1, the Potency is reported as inconclusive [inhibitor, partial curve].
With COc1ccc(C2C(C(=O)OCC3CCCO3)=C(C)NC3=C2C(=O)CC(c2ccco2)C3)cc1O (stereo not given) the Potency was inconclusive [inhibitor, partial curve].
For COCCN1CN=C(Nc2nc3ccccc3s2)NC1, the Potency was “inactive”.
In the case of CCCCn1nc(C(=O)Nc2nc3c(s2)CCCC3)c2ccccc2c1=O, the Potency is reported as inconclusive [inhibitor, single point].
For [O]=[Bi][O]C(=O)[O][Bi]=[O], the Potency was inconclusive [inhibitor, partial curve, poor fit].
With c1ccc2c(c1)ncn2CCN1CCCCC1 the Potency was “inactive”.
With O=C(Oc1ccc2c(c1)OCC2=O)c1ccc(Cl)cc1 the Potency was inconclusive [inhibitor, single point].
For COc1ccc(N2C(=O)CC(N(CCc3ccc(S(N)(=O)=O)cc3)C(=S)Nc3ccccc3)C2=O)cc1 (stereo not given), the Potency was inconclusive [inhibitor, partial curve, poor fit].
In the case of CN(CCOc1ccccc1)C(=S)Nc1ccc(OC(F)F)cc1, the Potency is reported as “inactive”.
In the case of CCOc1ccc2nc(SCC(=O)NCc3ccccc3)[nH]c2c1, the Potency is reported as inconclusive [inhibitor, single point].
In the case of CC(C)C(c1nnnn1C1CCCCC1)N1CCCc2ccccc21 (stereo not given), the Potency is reported as active: 9.28 µM.
For COc1ccc(-c2c(C)nn(-c3ccccc3)c2N)cc1OC, the Potency was “inactive”.
With CN1CCN(CC(O)COC(c2ccccc2)c2ccccc2)CC1 (stereo not given) the Potency was “inactive”.
With Cc1cc(C)nc(SCc2nnc(SCC(=O)Nc3ccc(C)c(C)c3)n2Cc2ccco2)n1 the Potency was inconclusive [inhibitor, single point].
With CCOc1cccc(-c2c(C(=O)N/N=C/c3sccc3C)nnn2-c2nonc2N)c1 the Potency was inconclusive [inhibitor, partial curve, poor fit].
For Cc1cc(C)nc(-n2nc(C)cc2NC(=O)CNC2CCCCC2)n1, the Potency was “inactive”.
In the case of C(=N\Nc1nc2ccccc2[nH]1)/c1ccncc1, the Potency is reported as inconclusive [inhibitor, full curve, poor fit].
In the case of COc1ccc(C(=O)NCCS(=O)(=O)NCc2cccs2)cc1, the Potency is reported as “inactive”.
For COC(=O)c1ccc(SCC(=O)N2CCC(C)CC2)c([N+](=O)[O-])c1, the Potency was “inactive”.
With COc1ccccc1OCC(=O)NNC(=O)c1cnccn1 the Potency was inconclusive [inhibitor, single point].
For CCC(C)(C)n1nnnc1C(c1ccccc1OC)N1CCN(C(=O)c2ccco2)CC1 (stereo not given), the Potency was active: 1.85 µM.
With Cc1cccc(C)c1NC(=O)CSc1nc(-c2ccco2)cc(C(F)(F)F)n1 the Potency was inconclusive [inhibitor, partial curve, poor fit].
With CCOP(=O)(OCC)C(Nc1cccc([N+](=O)[O-])c1)c1ccccc1 (stereo not given) the Potency was inconclusive [inhibitor, full curve, poor fit].
In the case of O=C(O)c1cc(O)ccc1-c1ccc(O)cc1, the Potency is reported as “inactive”.
In the case of CCCn1c(NCc2cccc(OC)c2O)nc2ccccc21, the Potency is reported as active: 11.7 µM.
For CC1CCN(S(=O)(=O)N2CCCC(C(=O)NCc3ccc(F)cc3)C2)CC1 (stereo not given), the Potency was “inactive”.
Potency is read from the fitted curve at half-maximal effect; tags tell the direction and shape of the fitted curve.
